The antibiotic and cytotoxicity screens of Wong et al. (2023)
This is one part of the list.

How the values were obtained:
HSkMC = human skeletal muscle cells; test: cytotoxicity call (relative viability < 0.9); conditions: 10 µM
HepG2 = test: cytotoxicity call (relative viability < 0.9); conditions: 10 µM
S. aureus RN4220 = test: growth inhibition call (relative growth <= 0.2); conditions: 50 µM

Structure (SMILES) | cytotoxicity call (HSkMC) | cytotoxicity call (HepG2) | growth inhibition call (S. aureus RN4220)
COC(=O)c1cc(=O)[nH]c2c1c(=O)n(C)c(=O)n2C | inactive | inactive | inactive
Cc1cc(C(=O)Nc2cccc3c2O[C@@H](CN(C)S(=O)(=O)c2cn(C)cn2)[C@@H](C)CN([C@H](C)CO)C3=O)n(C)n1 | inactive | inactive | inactive
O=C(NCCNS(=O)(=O)c1cccc2nonc12)[C@H]1COc2ccccc2O1 | inactive | inactive | inactive
N[C@@H](CC(=O)NO)C(=O)O | inactive | inactive | inactive
COc1ccc(S(=O)(=O)Nc2cccc3c2O[C@@H](CN(C)S(=O)(=O)c2ccc(OC)cc2)[C@@H](C)CN([C@@H](C)CO)C3=O)cc1 | inactive | inactive | inactive
CC(C)N1C[C@@H](C)[C@H](CN(C)Cc2ccc(Oc3ccccc3)cc2)Oc2c(C(=O)Nc3ccncc3)cccc2C1=O | inactive | inactive | inactive
Cc1ccc(S(=O)(=O)N(C)C[C@@H]2Oc3ccc(NC(=O)CCN4CCOCC4)cc3C(=O)N([C@H](C)CO)C[C@@H]2C)cc1 | inactive | inactive | inactive
CC(C)(C)NC(=O)C1CCC2C3CCC4NC(=O)C=CC4(C)C3CCC12C (centres undefined) | inactive | inactive | inactive
COc1ccc(S(=O)(=O)N(C)C[C@H]2Oc3ccc(NC(=O)CCN4CCOCC4)cc3C(=O)N([C@H](C)CO)C[C@@H]2C)cc1 | inactive | inactive | inactive
C[C@@H]1CCCCO[C@@H](CN(C)Cc2ccncc2)[C@H](C)CN([C@H](C)CO)C(=O)c2cc(NS(C)(=O)=O)ccc2O1 | inactive | inactive | inactive
C[C@H](CO)N1C[C@H](C)[C@@H](CN(C)CC2CCCCC2)Oc2c(NC(=O)Cc3cn(C)c4ccccc34)cccc2C1=O | inactive | inactive | inactive
C[C@@H]1CN([C@H](C)CO)S(=O)(=O)c2ccc(C#CCN(C)C)cc2O[C@@H]1CN(C)C | inactive | inactive | inactive
CCC[C@@H](O)C#Cc1cnc2c(c1)C(=O)N([C@H](C)CO)C[C@H](C)[C@H](CN(C)Cc1ccc3c(c1)OCO3)O2 | inactive | inactive | inactive
COc1cccc(C#Cc2ccc([C@@H]3[C@H](CO)N4C(=O)CN(S(=O)(=O)c5ccccc5C)C[C@@H]34)cc2)c1 | inactive | inactive | inactive
Cc1noc(C)c1S(=O)(=O)Nc1ccc2c(c1)C(=O)N([C@@H](C)CO)C[C@H](C)[C@H](CN(C)S(=O)(=O)c1cn(C)cn1)OCCCC[C@H](C)O2 | inactive | inactive | inactive
C[C@H](CO)N1C[C@H](C)[C@H](CN(C)Cc2ccc(C(=O)O)cc2)Oc2ccc(NC(=O)C3CC3)cc2CC1=O | inactive | inactive | inactive
CN1CCN(C(=O)C[C@H]2C=C[C@@H](NS(=O)(=O)c3cccc(F)c3)[C@H](CO)O2)CC1 | inactive | inactive | inactive
O=C(C[C@H]1CC[C@@H]2[C@H](COC[C@@H](O)CN2C(=O)Nc2ccc(C(F)(F)F)cc2)O1)NCCc1ccncc1 | inactive | inactive | active
C[C@H](CO)N1C[C@H](C)[C@H](CN(C)C(=O)Nc2cccc3ccccc23)Oc2c(NC(=O)Nc3ccc(C(F)(F)F)cc3)cccc2C1=O | inactive | active | inactive
O=C(O)c1cc2cc(Cl)ccc2[nH]1 | inactive | inactive | inactive

Structure (SMILES) | cytotoxicity call (HSkMC) | cytotoxicity call (HepG2) | growth inhibition call (S. aureus RN4220)
C=C[C@@H]1[C@@H](O[C@@H]2O[C@H](CO)[C@@H](O)[C@H](O)[C@@H]2O)OC=C(C(=O)O)[C@H]1CC(=O)O | inactive | inactive | inactive
O=C(ON1C(=O)CCC1=O)c1ccccc1 | inactive | inactive | inactive
C[C@@H]1CN([C@H](C)CO)C(=O)Cc2cc(NC(=O)CCC(F)(F)F)ccc2O[C@@H]1CN(C)S(C)(=O)=O | inactive | inactive | inactive
CCOC(=O)CCCCCC(=O)Nc1ccc2c(c1)C(=O)N([C@@H](C)CO)C[C@H](C)[C@H](CN(C)C(=O)Nc1ccc(F)cc1)OCCCC[C@H](C)O2 | inactive | inactive | inactive
COC(=O)c1c2oc(c1C(=O)OC)C(=O)N[C@@H](Cc1ccccc1)Cn1cc(nn1)CNC(=O)[C@@H](Cc1ccccc1)NC(=O)N[C@@H](COC(=O)NCCCCCC(=O)NO)CC2 | inactive | inactive | inactive
COc1ccc(C#Cc2ccc3c(c2)O[C@H](CN(C)C(=O)CN2CCOCC2)[C@H](C)CN([C@@H](C)CO)S3(=O)=O)cc1 | inactive | inactive | inactive
C[C@H]1CN([C@@H](C)CO)C(=O)c2cc(C#Cc3ccccc3F)cnc2O[C@@H]1CN(C)C(=O)C1CCOCC1 | inactive | inactive | inactive
C[C@@H]1CN([C@@H](C)CO)C(=O)c2cc(NC(=O)C3CCCCC3)ccc2O[C@@H](C)CCCCO[C@H]1CN(C)C(=O)Nc1ccccc1 | inactive | inactive | inactive
Nc1nc(=O)c2ncn([C@H]3C[C@H](O)[C@@H](CO)O3)c2[nH]1 | inactive | inactive | inactive
Cc1ccccc1S(=O)(=O)N1C[C@H](O)COC[C@H]2O[C@@H](CC(=O)N3CCOCC3)CC[C@@H]21 | inactive | inactive | inactive
CCN(CC)CCOc1ccc(Nc2ncc3cc(-c4c(Cl)cccc4Cl)c(=O)n(C)c3n2)cc1 | active | active | inactive
C[C@H](CO)N1C[C@H](C)[C@H](CN(C)C(=O)c2ccccc2)Oc2cc(C#CC3(O)CCCC3)ccc2S1(=O)=O | inactive | inactive | inactive
Cc1noc(C)c1S(=O)(=O)N(C)C[C@@H]1OCCCC[C@@H](C)Oc2ccc(NC(=O)Nc3cccc4ccccc34)cc2C(=O)N([C@H](C)CO)C[C@H]1C | inactive | inactive | inactive
Cc1ccc(CN)s1 | inactive | inactive | inactive
CN(C)CCCNC(=O)C[C@H]1CC[C@H]2[C@H](COc3ccc(NC(=O)c4ccc5c(c4)OCO5)cc3C(=O)N2C)O1 | inactive | inactive | inactive
Cn1nnc2cc(NC(=O)NCCO)ccc21 | inactive | inactive | inactive
Cc1ccc(S(=O)(=O)N(C)C[C@H]2Oc3ccc(NC(=O)CCN4CCOCC4)cc3CC(=O)N([C@H](C)CO)C[C@H]2C)cc1 | inactive | inactive | inactive
O=C1c2ccncc2C(=O)N1CN1CCOCC1 | inactive | inactive | inactive
CC(C)CC#Cc1cnc2c(c1)C(=O)N([C@H](C)CO)C[C@@H](C)[C@H](CN(C)S(=O)(=O)c1cn(C)cn1)O2 | inactive | inactive | inactive
C[C@@H]1CN([C@@H](C)CO)C(=O)Cc2cc(NC(=O)Nc3cccc4ccccc34)ccc2O[C@@H]1CN(C)C(=O)Nc1ccccc1 | inactive | inactive | inactive

Structure (SMILES) | cytotoxicity call (HSkMC) | cytotoxicity call (HepG2) | growth inhibition call (S. aureus RN4220)
O=C(c1ccc(F)cc1)C1CCN(CCn2c(=O)[nH]c3ccccc3c2=O)CC1 | inactive | inactive | inactive
C[C@@H]1CN([C@@H](C)CO)S(=O)(=O)c2ccc(-c3ccc(C(=O)N(C)C)cc3)cc2O[C@H]1CN(C)C(=O)C1CC1 | inactive | inactive | inactive
C[C@@H]1CCCCO[C@@H](CN(C)S(=O)(=O)c2ccccc2)[C@H](C)CN([C@@H](C)CO)C(=O)c2cc(NC(=O)Nc3ccccc3)ccc2O1 | inactive | inactive | inactive
C[C@@H]1CCCCO[C@@H](CN(C)C(=O)c2ccncc2)[C@H](C)CN([C@H](C)CO)C(=O)c2cc(NS(=O)(=O)c3cn(C)cn3)ccc2O1 | inactive | inactive | inactive
C[C@H]1CN([C@@H](C)CO)C(=O)CCCn2nncc2CO[C@H]1CN(C)S(=O)(=O)c1ccc(Oc2ccccc2)nc1 | inactive | inactive | inactive
Cc1noc(C)c1S(=O)(=O)Nc1ccc2c(c1)C(=O)N([C@@H](C)CO)C[C@@H](C)[C@@H](CN(C)CC1CCCCC1)OCCCC[C@@H](C)O2 | inactive | inactive | inactive
C=CC[C@@H](CC(=O)NCCO)C(=O)N[C@@H](COC(=O)[C@H](CC=C)CC(=O)OC(C)(C)C)Cc1c[nH]c2ccccc12 | inactive | inactive | inactive
CN(CCOc1ccc(CC2SC(=O)NC2=O)cc1)c1ccccn1.O=C(O)C=CC(=O)O (centres undefined) | inactive | active | inactive
CC(C)NC(=O)Nc1ccc2c(c1)CC(=O)N([C@H](C)CO)C[C@H](C)[C@@H](CN(C)S(=O)(=O)c1cccs1)O2 | inactive | inactive | inactive
C[C@@H]1CN([C@@H](C)CO)C(=O)c2c(c3ccccc3n2C)-c2ccccc2CO[C@H]1CN(C)C(=O)Nc1ccc(-c2ccccc2)cc1 | inactive | inactive | inactive
Cc1cc(C(=O)Nc2cccc3c2O[C@@H](CN(C)Cc2ccc(Oc4ccccc4)cc2)[C@H](C)CN([C@@H](C)CO)C3=O)n(C)n1 | inactive | inactive | inactive
CNC[C@H]1Oc2ccc(NC(=O)Cn3cnnn3)cc2C(=O)N([C@@H](C)CO)C[C@@H]1C | inactive | inactive | inactive
C[C@@H]1CN([C@H](C)CO)C(=O)c2cc(NC(=O)c3ccccc3)ccc2O[C@@H](C)CCCCO[C@H]1CN(C)C(=O)c1ccccc1 | inactive | inactive | inactive
COc1ccc(NC(=O)Nc2ccc3c(c2)CC(=O)N([C@H](C)CO)C[C@@H](C)[C@@H](CN(C)Cc2ccc(Oc4ccccc4)cc2)O3)cc1 | inactive | active | inactive
C=CCn1cnc2c1c(=O)[nH]c(=O)n2C | inactive | inactive | inactive
C[C@@H]1CN([C@H](C)CO)C(=O)c2cc(NC(=O)C3CCOCC3)ccc2O[C@H]1CN(C)S(=O)(=O)c1ccc(Cl)cc1 | inactive | inactive | inactive
CC(=O)NC(CS)C(=O)O (centres undefined) | inactive | inactive | inactive
Cn1c(=O)cnn(CCCCN2CCN(c3ncccn3)CC2)c1=O | inactive | inactive | inactive
